Hit rate of the full screen: of about 120,000 compounds, about 5,300 (4.4%) were called active. This list was built around the results that the source calls inconclusive (neither active nor inactive); the mix of calls is not that of the screen. The call rests on the fitted dose curve; in most records, active means well fitted inhibition curve with a large enough effect; inconclusive means small, poorly fitted or top-dose-only effect; inactive means no such curve, though single readings can be large or run the other way. Potencies of inconclusive entries are doubtful fits and often do not repeat.
Experiment: qHTS Primary assay for Inhibitors of Plasmodium falciparum Dd2 growth in vitro; further: nearly all actives have a fitted effect of over 65% in size;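 on activity, negative = inhibition: plate controls were DMSO vehicle for no effect and reference drug for full effect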
Conditions: P. falciparum Dd2 growth, SYBR Green, 72 h; activity, negative = inhibition: at 28.9 µM (top of the series) unless noted; series mostly up to 28.9 µM
Procedure, shortened: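 Readout: SYBR Green fluorescence, 485 nm excitation, 535 nm emission, after ~16 h lysis at 37C. Before that, Dd2-infected red cells (2.5% hematocrit) grew 72 h with compound, 29 uM top final concentration.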
Potency means the concentration at half of the fitted maximal effect; tags describe the fitted curve by direction and shape.

| SMILES | Potency | activity, negative = inhibition |
| --- | --- | --- |
| CC(C)NC(=O)C1CN(Cc2ccccc2)C(=O)N1 (configuration not stated) | inactive | – |
| COc1ccccc1OCc1cc(C(=O)N(C)CC2Cc3ccccc3O2)n[nH]1 (configuration not stated) | inconclusive: 11.2 µM [inhibitor, single point] | – |
| CCN1c2ccccc2-n2cccc2C12CCN(C(=O)Nc1ccccc1Br)CC2 | inconclusive: 8.91 µM [inhibitor, partial curve, poor fit] | – |
| CC(C)N1CCC(N2CCN(Cc3cn(C(C)C)c4ccccc34)CC2CCO)CC1 (configuration not stated) | inconclusive: 17.8 µM [inhibitor, single point] | – |
| CN(CC1(C)CCOCC1)C(=O)c1c(F)cccc1Cl | inactive | – |
| COc1ccccc1CCC(=O)N1CCCC(Nc2ccc(F)cc2)C1 (configuration not stated) | inactive | – |
| Cn1cnc(S(=O)(=O)NCC(=O)N2CCCCCNC(=O)CC2c2ccccc2)c1 (configuration not stated) | inactive | – |
| O=C(CSc1ncc2c(n1)-c1cc(Cl)ccc1N(Cc1ccccc1)S2(=O)=O)Nc1ccc(F)cc1F | inconclusive: 17.8 µM [inhibitor, single point] | – |
| CCN(CC)c1cc(C)c2cc(NC(=O)/C=C/c3ccccc3Cl)ccc2n1 | active: 10 µM | – |
| CO[C@H]1COCCN(C(=O)c2cccnc2)C1 | inactive | – |
| CCOC(=O)N1CCC(NC(=O)c2cnn(-c3ccc(F)cc3)c2-n2cccc2)CC1 | inconclusive: 8.91 µM [inhibitor, partial curve] | – |
| N#CC1=C2SCN(C3CCCCC3)CN2C(=O)CC1c1ccc(Cl)cc1 (configuration not stated) | inconclusive: 10 µM [inhibitor, single point] | – |
| CN1CC(=O)N(C2CCCNC2)Cc2c(NCCOc3ccccc3)ncnc21 (configuration not stated) | inactive | – |
| O=C1c2ccccc2OCC2(CCN([S+](=O)([O-])c3ccccc3)C2)N1[S+](=O)([O-])c1ccccc1 (configuration not stated) | inconclusive: 3.98 µM [inhibitor, partial curve] | – |
| COC(=O)c1c(N)n(-c2ccc(OC)c(OC)c2)c2nc3ccccc3nc12 | inconclusive: 5.01 µM [inhibitor, partial curve, poor fit] | – |
| COc1ccc(-c2ccc3c(n2)CN(Cc2csc(C)n2)C(=O)CO3)cc1F | inconclusive: 0.398 µM [inhibitor, full curve, poor fit] | – |
| CCn1ccc(C(=O)N2[C@@H]3CC[C@H]2CC(NC(=O)c2ccncc2)C3)n1 (some centres not stated) | inactive | – |
| O=S(=O)(c1ccc(F)cc1)N1CCC(OC2CCN(Cc3ccccc3)CC2)CC1 | inactive | – |
| COc1ccc(CN2C(=O)CO[C@H]3CN(C4CCC4)C[C@H]32)cc1 | inconclusive: 5.62 µM [inhibitor, partial curve, poor fit] | – |
| Cc1cc(-n2c(C)nc3ccccc3c2=O)ccc1NC(=O)c1ccccc1[N+](=O)[O-] | inactive | – |
| COc1ccc(C(=O)N2CCC3(CC2)C(OC)CN3c2cccc(F)c2)cn1 (configuration not stated) | inconclusive: 10 µM [inhibitor, single point] | – |

| SMILES | Potency | activity, negative = inhibition |
| --- | --- | --- |
| CC(=O)Nc1cccc(-c2ncc3c(n2)OCCN(Cc2ccccc2)C3=O)c1 | inconclusive: 1.12 µM [inhibitor, partial curve] | – |
| CCCNC(=O)Nc1ccc(OC2CCN(C(=O)CC)C2)nc1 (configuration not stated) | inconclusive: 1.12 µM [inhibitor, full curve, poor fit] | – |
| CCCN1CCN(CCCNC(=O)c2ccc3nc(Cc4ccccc4)oc3c2)CC1 | inconclusive: 12.6 µM [inhibitor, single point] | – |
| CCCCN1CC(c2nc3ccccc3n2CCCCOc2cccc(C)c2C)CC1=O (configuration not stated) | inconclusive: 10 µM [inhibitor, single point] | – |
| O=C1CCN(C(=O)CCc2ccccc2)CCCC(c2nc(-c3ccccc3)no2)CCN1 (configuration not stated) | inactive | – |
| CCOc1ccc(CN(CCc2ccc3c(c2)OCO3)Cc2cc(OC)c(OC)cc2OC)cc1 | inconclusive: 17.8 µM [inhibitor, single point] | – |
| COc1ccc(C(=O)Nc2ccc(-c3noc([C@@H]4CCCN4CC4CCCCC4)n3)cn2)cc1 | inconclusive: 11.2 µM [inhibitor, single point] | – |
| O=C1NCCCCCCN(Cc2ccncc2)[C@@H]2CN(C(=O)COc3ccccc3)CC[C@@H]12 | inconclusive: 20 µM [inhibitor, single point] | – |
| CCC(Sc1nnc2c3ccccc3n(CC)c2n1)C(=O)Nc1nnc(C(C)C)s1 (configuration not stated) | inconclusive: 11.2 µM [inhibitor, single point] | – |
| Cc1cc(N2CCCC(Cn3cc(Cc4ccccc4)nn3)C2)nc(N)n1 (configuration not stated) | active: 12.6 µM | – |
| COc1ccc(-c2cc3nc(C4CCN(C(=O)OC(C)(C)C)CC4)c(C(=O)Nc4cc(C)cc(C)c4)cn3n2)cc1 | – | inconclusive: -158% [inhibitor] [at 5.79 µM] |
| COc1ccc(NC(=O)CN2C(=O)c3cccnc3Sc3ccccc32)cc1OC | inconclusive: 20 µM [inhibitor, single point] | – |
| CCOC(=O)c1ccc(NC(=O)C2=C(C)Nc3nc(CCCO)nn3C2c2ccc(OC)cc2)cc1 (configuration not stated) | inconclusive: 7.94 µM [inhibitor, partial curve] | – |
| COc1cc(C(=O)Nc2ccccc2-c2nc(-c3ccc(C)cc3)no2)cc(OC)c1OC | inactive | – |
| CCN(C(=O)c1cn(CC)c(=O)c2cc(OC)c(OC)cc12)c1ccccc1F | inconclusive: 11.2 µM [inhibitor, single point] | – |
| COCCNC(=O)C1(C)CN(Cc2ccccc2)Cc2ccc(NCC(C)C)nc21 (configuration not stated) | inconclusive: 6.31 µM [inhibitor, partial curve] | – |
| Cc1ccccc1-c1cccc(C(=O)N(C)Cc2ncc[nH]2)c1 | inactive | – |
| CC[C@H]1CN(C(=O)Nc2cccc(C(F)(F)F)c2)CC[C@H]1CC(=O)NC1CC1 | inactive | – |
| COCc1cc(=O)n(CC(=O)Nc2cccc(C)c2)c(N2CCOCC2)n1 | inactive | – |
| Cc1cn2nc(C(=O)NCc3ccc(F)cc3)cc2c(N(C)Cc2ccccc2)n1 | inconclusive: 2.51 µM [inhibitor, full curve, poor fit] | – |
| COc1ccc(OCc2nc(C(=O)N3CCC4(CCCN(C)C4=O)C3)co2)cc1 (configuration not stated) | inconclusive: 7.94 µM [inhibitor, partial curve, poor fit] | – |

Reference: PubChem BioAssay AID1347417 (National Center for Advancing Translational Sciences (NCATS), 2020)
